The record followed here is PubChem BioAssay AID1508624 (National Center for Advancing Translational Sciences (NCATS), 2021).

Each structure is given as a SMILES string. The campaign covered roughly 48,000 compounds. About 120 (0.25%) were called active. Another 4% or so got no clear call; they are omitted. The call rests on the fitted dose curve; in most records, active means well fitted activation curve with a large enough effect; inconclusive means small, poorly fitted or top-dose-only effect, or another doubt; inactive means no such curve, though single readings can be large or run the other way. This is one part of the list.

The nature of the experiment: Primary qHTS for Identification of Small Molecule Activators of Huntingtin-Antisense Promoter Activity. Further: nearly all actives have a fitted effect of over 55% in size. The following applies: HEK293 HTT-AS promoter firefly luciferase reporter, 24 h; series mostly up to 57.5 µM; activity change, positive = activation: at the top concentration. An outline of the steps: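 Luminescence was read after Dual-Glo reagent and a 10 min room-temperature incubation. Values were normalized to vehicle (0% activity) and zero RLU (-100% activity). Reporter HEK293 cells had been exposed to compounds (up to 57.5 uM final) for 24 h.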
Consider `COc1cc(NC(=O)Cn2ccc3ccccc3c2=O)cc(OC)c1OC`, for which the “activity change, positive = activation” value was inactive: -16.1%.
In the case of `COC(=O)c1ccc([C@H]2Nc3ccc(S(=O)(=O)Nc4cccc(C)c4)cc3[C@H]3C=CC[C@H]32)cc1`, the “activity change, positive = activation” value is inactive: -15.8%.
For the compound `COCCNC(=O)CCCn1c(SCc2ccccc2Cl)nc2c(sc3ccccc32)c1=O`, the “activity change, positive = activation” value is inactive: 6.61%.
Consider `CCCCOc1ccc(C(=O)N(Cc2ccco2)Cc2ccco2)cc1`, for which the “activity change, positive = activation” value was inactive: -16.6%.
For the compound `COc1ccccc1C1CC(=O)N(c2cccc(C(F)(F)F)c2)C2=C1C(=O)OC2` (configuration not stated), the “activity change, positive = activation” value is inactive: 0%.
In the case of `COC(=O)c1c(-c2ccccc2)c(-c2ccccc2)nn(C)c1=O`, the “activity change, positive = activation” value is inactive: -22.2%.
For `Cc1ccc(/C=N/n2c(-c3ccccc3)csc2=S)cc1`, the “activity change, positive = activation” value was inactive: -11.9%.
For `CCC(=O)Nc1nnc2n1CCS2`, the “activity change, positive = activation” value was inactive: -9.34%.
The result for `Cc1cccc(N(CC(N)=O)C2SC(=O)N(Cc3cccc(C(=O)O)c3)C2=O)c1` (configuration not stated) reads inactive: -10.2% [at 11.5 µM, percent change from vehicle, -100% = no light]; that for `Cc1cc(Br)cc2c(C(=O)OCC(=O)c3ccccc3)cc(-c3ccccc3)nc12`, inactive: 6.08%; that for `Cc1c(-c2nnc(SCC(=O)Nc3ccc(Cl)cc3)o2)nnn1-c1ccc(F)cc1`, inactive: 2.87%.
In the case of `COc1ccccc1N1CCN(C(=O)c2cnc(N3CCOCC3)c3ccccc23)CC1`, the “activity change, positive = activation” value is inactive: -36.4%.
Turning to `CCN1CCSc2ccc(C(=O)NCc3ccccc3Br)cc21`, the “activity change, positive = activation” value was inactive: -11.7%.
For `O=c1[nH]c(SCc2cccc(Cl)c2)nc2c1CCC2`, the “activity change, positive = activation” value is inactive: 3.3%.
The value for `Cc1cc(CN2CCN(c3ccc(F)cc3)CC2)cs1` was inactive: -10.2%; that for `COC(=O)Cc1c(C)nc2nc(-c3ccc(C)cc3)[nH]n2c1=O` was inactive: -21.4%.
As for `CCOc1cccc2sc(NC(=O)CS(=O)(=O)c3ccc(C)cc3)nc12`, the “activity change, positive = activation” value is inactive: -10.7%.
Turning to `CCN(Cc1ccccc1)S(=O)(=O)c1ccc(F)c(C(=O)Nc2cc(C(F)(F)F)ccc2Cl)c1`, the “activity change, positive = activation” value was inactive: -16%.
For the compound `COc1ccc(-n2c(=O)c3sc4ccccc4c3n(CC(=O)NC3CCCCC3)c2=O)cc1`, the “activity change, positive = activation” value is inactive: -4.38%.
For the compound `CC(C)c1ccc(N2C(=O)N(Cc3ccccc3Cl)c3ccccc3S2(=O)=O)cc1`, the “activity change, positive = activation” value is inactive: -24.8%.
The value for `CCS(=O)(=O)c1c(Nc2cc(C)ccc2C)sc(C(=O)c2ccccc2)c1N` was inactive: -38.6%; that for `COc1cccc(-c2nc(S(=O)(=O)c3ccccc3)c(N3CCC(C)CC3)o2)c1` was inactive: -9.6%; that for `Cc1ccc(C(=O)n2nc(C)c(S(=O)(=O)N3CCOCC3)c2C)cc1C` was inactive: -18.8%.
As for `CC1=C(C(=O)Nc2ccccc2)C(c2cc(Br)ccc2F)n2ncc(C(=O)Nc3ccccc3)c2N1` (configuration not stated), the “activity change, positive = activation” value is inactive: -24.6%.
As for `O=C(Nc1ccccc1)OCC(CN1CCCCC1)OC(=O)Nc1ccccc1` (configuration not stated), the “activity change, positive = activation” value is inactive: -33.6%.
On to `Cc1ccc(NC(=O)c2nnn(CC(=O)Nc3ccc(C)c(Cl)c3)c2N)c(C)c1`, for which the “activity change, positive = activation” value is inactive: 4.23%.
For `O=c1c2ccccc2nc(-c2ccc(Cl)cc2)n1CCCOc1ccccc1F`, the “activity change, positive = activation” value is inactive: -1.17%.
`COc1ccc(CCC(=O)c2c(O)cc(O[C@@H]3O[C@H](CO)[C@@H](O)[C@H](O)[C@@H]3O[C@@H]3O[C@@H](C)[C@H](O)[C@@H](O)[C@@H]3O)cc2O)cc1O`: the “activity change, positive = activation” value was inactive: -49.9%.
Turning to `COc1ccc(Cn2c(CO)cnc2SCc2cccc(C)c2)cc1`, the “activity change, positive = activation” value was inactive: 11.9%.
In the case of `COc1ccccc1N1CCN(C(=O)CCS(=O)(=O)c2cc(Br)cc3c2N(C(C)=O)CC3)CC1`, the “activity change, positive = activation” value was inactive: -25.4%.
On to `O=C(COc1ccc(Cl)cc1)NCC(c1ccco1)S(=O)(=O)c1ccc(Cl)cc1` (configuration not stated), for which the “activity change, positive = activation” value was inactive: -16.4%.
Take `COc1ccc(CNC(=O)c2cc3c(=O)n(C)c4ccccc4c3n2C)c(OC)c1`: the “activity change, positive = activation” value is inactive: -6.7%.
Regarding `Cc1cc(C)c2oc(-c3ccc(C)c(NC(=O)/C=C/c4ccco4)c3)nc2c1`, the “activity change, positive = activation” value is inactive: 0.941%.
As to `Cc1nc(N2CCCC2)ncc1C(=O)N1CCN(c2ccccc2F)CC1`, the “activity change, positive = activation” value was inactive: -1.4%.
`CC1(C)C(=O)N(CCN2CCC(C(=O)c3ccc(F)cc3)CC2)c2ccccc21`: the “activity change, positive = activation” value is inactive: -32.2%.
The value for `CCOc1ccc(CCNC(=O)c2ccc(-c3nc(COc4ccc(C)cc4)c(C)o3)cc2)cc1` was inactive: -17.3%; that for `COc1ccc(NC(=O)CSc2nc(-c3ccc(F)cc3)c3cccc(C)c3n2)cc1` was inactive: -9.85%.
With `COc1ccc(CCNC(=O)c2ccc(Cn3c(=O)c4ccccc4n(Cc4ccc(C)cc4)c3=O)cc2)cc1OC`, the “activity change, positive = activation” value is inactive: -6.02%.
As for `Cc1ccc2nc(CN3CCN(C(=O)Nc4ccc(C)c(F)c4)CC3)oc2c1`, the “activity change, positive = activation” value is inactive: 15.1%.
The result for `COCCCn1c(SCC(=O)Nc2ccccc2OC)nc2c(sc3ccccc32)c1=O` reads inactive: -2.06%; that for `CCC1=Nc2cc(C(=O)NCc3ccc(C)cc3)ccc2Sc2ccc(C)cc21`, inactive: -34.5%; that for `CCCCN(C)CCCNC(=O)c1cc(-c2cccnc2)nc2ccccc12`, inactive: -2.65%.
For the compound `COc1ccc(-c2oc3ncn4nc(COc5ccccc5C)nc4c3c2-c2ccc(OC)cc2)cc1`, the activity change, positive = activation is inactive: 6.69% [at 11.5 µM, percent change from vehicle, -100% = no light].
Regarding `COC(=O)c1ccc(OC)c(Cn2c(=O)n(-c3cccc(Cl)c3)c(=O)c3c4c(sc32)CN(C(C)=O)CC4)c1`, the “activity change, positive = activation” value was inactive: -4.19%.
Turning to `CCOC(=O)C1CCCN(C(=O)Cn2ncn3c(cc4sc(CC)cc43)c2=O)C1` (configuration not stated), the “activity change, positive = activation” value was inactive: -16.1%.
Take `O=C(Nc1ccc(F)cc1)[C@@H](c1ccccc1)N1Cc2ccccc2C1=O`: the “activity change, positive = activation” value is inactive: -14.1%.
As for `COc1cc(OC)c(NC(=O)Cc2ccc(-n3c(C)nc4cccnc43)cc2)cc1Cl`, the “activity change, positive = activation” value is inactive: -33.9%.
